# Assay results as given in the supplement of paper PMC11876631.
# ± gives the standard deviation of the averaged measurements. Laboratory Escherichia coli strains with one amino-acid change in an essential protein, pooled on minimal glucose agar with carbenicillin or gentamicin at twice the control MIC (plus kanamycin and chloramphenicol for the plasmids), 48 h. Fold change of barcode share against drug-free plates; higher = less susceptible. Active = above 20 in both replicates (the paper's putatively resistant). '<' = one read or none on drug, '>' = one read or none on a drug-free plate. Shares are relative, so most strains fall below 1 when a few take over. Listed are strains with at least 15 reads on both drug-free plates, and hits; most hits rest on fewer reference reads. Replicate rank correlation about 0.5. Edits are read from barcodes.
# B1: dnaA L48A (protein)
# chain: MSLSLWQQCLARLQDELPATEFSMWIRPLQAELSDNTLALYAPNRFVADWVRDKYLNNINGLLTSFCGADAPQLRFEVGTKPVTQTPQAAVTSNVAAPAQVAQTQPQRAAPSTRSGWDNVPAPAEPTYRSNVNVKHTFDNFVEGKSNQLARAAARQVADNPGGAYNPLFLYGGTGLGKTHLLHAVGNGIMARKPNAKVVYMHSERFVQDMVKALQNNAIEEFKRYYRSVDALLIDDIQFFANKERSQEEFFHTFNALLEGNQQIILTSDRYPKEINGVEDRLKSRFGWGLTVAIEPPELETRVAILMKKADENDIRLPGEVAFFIAKRLRSNVRELEGALNRVIANANFTGRAITIDFVREALRDLLALQEKLVTIDNIQKTVAEYYKIKVADLLSKRRSRSVARPRQMAMALAKELTNHSLPEIGDAFGGRDHTTVLHACRKIEQLREESHDIKEDFSNLIRTLSS
# B2: dnaA L48W (protein)
# chain: MSLSLWQQCLARLQDELPATEFSMWIRPLQAELSDNTLALYAPNRFVWDWVRDKYLNNINGLLTSFCGADAPQLRFEVGTKPVTQTPQAAVTSNVAAPAQVAQTQPQRAAPSTRSGWDNVPAPAEPTYRSNVNVKHTFDNFVEGKSNQLARAAARQVADNPGGAYNPLFLYGGTGLGKTHLLHAVGNGIMARKPNAKVVYMHSERFVQDMVKALQNNAIEEFKRYYRSVDALLIDDIQFFANKERSQEEFFHTFNALLEGNQQIILTSDRYPKEINGVEDRLKSRFGWGLTVAIEPPELETRVAILMKKADENDIRLPGEVAFFIAKRLRSNVRELEGALNRVIANANFTGRAITIDFVREALRDLLALQEKLVTIDNIQKTVAEYYKIKVADLLSKRRSRSVARPRQMAMALAKELTNHSLPEIGDAFGGRDHTTVLHACRKIEQLREESHDIKEDFSNLIRTLSS
# B3: dnaA L48Q (protein)
# chain: MSLSLWQQCLARLQDELPATEFSMWIRPLQAELSDNTLALYAPNRFVQDWVRDKYLNNINGLLTSFCGADAPQLRFEVGTKPVTQTPQAAVTSNVAAPAQVAQTQPQRAAPSTRSGWDNVPAPAEPTYRSNVNVKHTFDNFVEGKSNQLARAAARQVADNPGGAYNPLFLYGGTGLGKTHLLHAVGNGIMARKPNAKVVYMHSERFVQDMVKALQNNAIEEFKRYYRSVDALLIDDIQFFANKERSQEEFFHTFNALLEGNQQIILTSDRYPKEINGVEDRLKSRFGWGLTVAIEPPELETRVAILMKKADENDIRLPGEVAFFIAKRLRSNVRELEGALNRVIANANFTGRAITIDFVREALRDLLALQEKLVTIDNIQKTVAEYYKIKVADLLSKRRSRSVARPRQMAMALAKELTNHSLPEIGDAFGGRDHTTVLHACRKIEQLREESHDIKEDFSNLIRTLSS
# B4: dnaA I59A (protein)
# chain: MSLSLWQQCLARLQDELPATEFSMWIRPLQAELSDNTLALYAPNRFVLDWVRDKYLNNANGLLTSFCGADAPQLRFEVGTKPVTQTPQAAVTSNVAAPAQVAQTQPQRAAPSTRSGWDNVPAPAEPTYRSNVNVKHTFDNFVEGKSNQLARAAARQVADNPGGAYNPLFLYGGTGLGKTHLLHAVGNGIMARKPNAKVVYMHSERFVQDMVKALQNNAIEEFKRYYRSVDALLIDDIQFFANKERSQEEFFHTFNALLEGNQQIILTSDRYPKEINGVEDRLKSRFGWGLTVAIEPPELETRVAILMKKADENDIRLPGEVAFFIAKRLRSNVRELEGALNRVIANANFTGRAITIDFVREALRDLLALQEKLVTIDNIQKTVAEYYKIKVADLLSKRRSRSVARPRQMAMALAKELTNHSLPEIGDAFGGRDHTTVLHACRKIEQLREESHDIKEDFSNLIRTLSS
# B5: dnaA I59W (protein)
# chain: MSLSLWQQCLARLQDELPATEFSMWIRPLQAELSDNTLALYAPNRFVLDWVRDKYLNNWNGLLTSFCGADAPQLRFEVGTKPVTQTPQAAVTSNVAAPAQVAQTQPQRAAPSTRSGWDNVPAPAEPTYRSNVNVKHTFDNFVEGKSNQLARAAARQVADNPGGAYNPLFLYGGTGLGKTHLLHAVGNGIMARKPNAKVVYMHSERFVQDMVKALQNNAIEEFKRYYRSVDALLIDDIQFFANKERSQEEFFHTFNALLEGNQQIILTSDRYPKEINGVEDRLKSRFGWGLTVAIEPPELETRVAILMKKADENDIRLPGEVAFFIAKRLRSNVRELEGALNRVIANANFTGRAITIDFVREALRDLLALQEKLVTIDNIQKTVAEYYKIKVADLLSKRRSRSVARPRQMAMALAKELTNHSLPEIGDAFGGRDHTTVLHACRKIEQLREESHDIKEDFSNLIRTLSS
# B6: dnaA I59Q (protein)
# chain: MSLSLWQQCLARLQDELPATEFSMWIRPLQAELSDNTLALYAPNRFVLDWVRDKYLNNQNGLLTSFCGADAPQLRFEVGTKPVTQTPQAAVTSNVAAPAQVAQTQPQRAAPSTRSGWDNVPAPAEPTYRSNVNVKHTFDNFVEGKSNQLARAAARQVADNPGGAYNPLFLYGGTGLGKTHLLHAVGNGIMARKPNAKVVYMHSERFVQDMVKALQNNAIEEFKRYYRSVDALLIDDIQFFANKERSQEEFFHTFNALLEGNQQIILTSDRYPKEINGVEDRLKSRFGWGLTVAIEPPELETRVAILMKKADENDIRLPGEVAFFIAKRLRSNVRELEGALNRVIANANFTGRAITIDFVREALRDLLALQEKLVTIDNIQKTVAEYYKIKVADLLSKRRSRSVARPRQMAMALAKELTNHSLPEIGDAFGGRDHTTVLHACRKIEQLREESHDIKEDFSNLIRTLSS
# Biological target: Escherichia coli (laboratory strain)
# Test: barcode share on antibiotic plates over drug-free plates; higher = less susceptible
# Details: antibiotic: carbenicillin; 2× MIC (3.1 µg/mL)
# Experimental: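 A pool of E. coli strains, each edited to carry one amino-acid change in an essential protein, was grown for 48 h on minimal glucose agar with or without antibiotic; strain barcodes were sequenced; mean of two replicates.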
row,Protein,fold change of barcode share
1,B1,0.232 ± 0.019
2,B2,0.349 ± 0.014
3,B3,0.541 ± 0.034
4,B4,0.349 ± 0.2
5,B5,0.308 ± 0.22
6,B6,0.239 ± 0.1

# Same assay, conditions: antibiotic: gentamicin; 2× MIC (MIC 0.45 µg/mL)
row,Protein,fold change of barcode share
1,B1,0.00502 ± 0.0033
2,B2,0.0083 ± 0.00044
3,B3,0.00747 ± 0.0056
4,B4,< 0.0115
5,B5,< 0.0122
6,B6,< 0.0114
